Experimental data: the supplement of paper PMC8728848
The other results are listed elsewhere or left out.

Tests used:
Experiment in all cases: glycan array binding signal (z-score within array); higher = stronger binding
Conditions in all cases: glycan notation: IUPAC condensed, linker removed
[1] = biological target: Neu5Ac(a2-6)Gal(b1-4)GlcNAc(b1-3)Gal(b1-4)GlcNAc(b1-3)GalNAc
How it was run: (§1)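 Columns mapping to the same glycan were averaged after glycan names were converted to IUPAC-condensed notation. The data come from 3228 arrays in the Consortium for Functional Glycomics database, limited to those with an available protein sequence. Binding is reported as a within-array Z-score averaged across arrays of one protein sequence and across linkers.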

[2] = biological target: Neu5Ac(a2-6)Gal(b1-4)GlcNAc(b1-3)Gal(b1-4)GlcNAc(b1-3)[Neu5Ac(a2-6)Gal(b1-4)GlcNAc(b1-3)Gal(b1-4)GlcNAc(b1-6)]GalNAc
How it was run: as §1

[3] = biological target: Neu5Ac(a2-6)Gal(b1-4)GlcNAc(b1-3)Gal(b1-4)GlcNAc(b1-6)[Gal(b1-3)]GalNAc
How it was run: as §1

[4] = biological target: Neu5Ac(a2-6)Gal(b1-4)GlcNAc(b1-3)Gal(b1-4)[Fuc(a1-3)]GlcNAc(b1-3)Gal(b1-4)[Fuc(a1-3)]GlcNAc
How it was run: as §1

[5] = biological target: Neu5Ac(a2-6)Gal(b1-4)GlcNAc(b1-3)GalNAc
How it was run: as §1

[6] = biological target: Neu5Ac(a2-6)Gal(b1-4)GlcNAc(b1-3)[Neu5Ac(a2-6)Gal(b1-4)GlcNAc(b1-6)]GalNAc
How it was run: as §1

[7] = biological target: Neu5Ac(a2-6)Gal(b1-4)GlcNAc(b1-6)GalNAc
How it was run: as §1

[8] = biological target: Neu5Ac(a2-6)Gal(b1-4)GlcNAc(b1-6)[Gal(b1-3)GlcNAc(b1-3)]Gal(b1-4)Glc
How it was run: as §1

[9] = biological target: Neu5Ac(a2-6)Gal(b1-4)GlcNAc(b1-6)[Gal(b1-3)]GalNAc
How it was run: as §1

[10] = biological target: Neu5Ac(a2-6)Gal(b1-4)GlcNAc6S
How it was run: as §1

[11] = biological target: Neu5Ac(a2-6)GalNAc
How it was run: as §1

[12] = biological target: Neu5Ac(a2-6)GalNAc(b1-4)GlcNAc
How it was run: as §1

[13] = biological target: Neu5Ac(a2-6)GalNAc(b1-4)GlcNAc6S
How it was run: as §1

[14] = biological target: Neu5Ac(a2-6)GlcNAc(b1-4)GlcNAc
How it was run: as §1

[15] = biological target: Neu5Ac(a2-6)GlcNAc(b1-4)GlcNAc(b1-4)GlcNAc
How it was run: as §1

[16] = biological target: Neu5Ac(a2-8)Neu5Ac
How it was run: as §1

[17] = biological target: Neu5Ac(a2-8)Neu5Ac(a2-3)Gal(b1-3)GalNAc(b1-4)[Neu5Ac(a2-3)]Gal(b1-4)Glc
How it was run: as §1

[18] = biological target: Neu5Ac(a2-8)Neu5Ac(a2-3)Gal(b1-3)GalNAc(b1-4)[Neu5Ac(a2-8)Neu5Ac(a2-3)]Gal(b1-4)Glc
How it was run: as §1

[19] = biological target: Neu5Ac(a2-8)Neu5Ac(a2-3)Gal(b1-4)Glc
How it was run: as §1

[20] = biological target: Neu5Ac(a2-8)Neu5Ac(a2-3)Gal(b1-4)GlcNAc
How it was run: as §1

[21] = biological target: Neu5Ac(a2-8)Neu5Ac(a2-3)[Gal(b1-3)GalNAc(b1-4)]Gal(b1-4)Glc
How it was run: as §1

[22] = biological target: Neu5Ac(a2-8)Neu5Ac(a2-3)[GalNAc(b1-4)]Gal(b1-4)Glc
How it was run: as §1

[23] = biological target: Neu5Ac(a2-8)Neu5Ac(a2-8)Neu5Ac
How it was run: as §1

[24] = biological target: Neu5Ac(a2-8)Neu5Ac(a2-8)Neu5Ac(a2-3)Gal(b1-4)Glc
How it was run: as §1

[25] = biological target: Neu5Ac(a2-8)Neu5Ac(a2-8)Neu5Ac(a2-3)[Gal(b1-3)GalNAc(b1-4)]Gal(b1-4)Glc
How it was run: as §1

[26] = biological target: Neu5Ac(a2-8)Neu5Ac(a2-8)Neu5Ac(a2-3)[GalNAc(b1-4)]Gal(b1-4)Glc
How it was run: as §1

[27] = biological target: Neu5Ac(a2-8)Neu5Ac(a2-8)Neu5Ac(a2-8)Neu5Ac(a2-3)[GalNAc(b1-4)]Gal(b1-4)Glc
How it was run: as §1

[28] = biological target: Neu5Ac(a2-8)Neu5Gc(a2-3)Gal(b1-4)GlcNAc
How it was run: as §1

[29] = biological target: Neu5Ac(b2-6)Gal(b1-4)GlcNAc
How it was run: as §1

[30] = biological target: Neu5Ac(b2-6)GalNAc
How it was run: as §1

[31] = biological target: Neu5Ac9Ac(a2-3)Gal(b1-3)GlcNAc
How it was run: as §1

[32] = biological target: Neu5Ac9Ac(a2-3)Gal(b1-4)GlcNAc
How it was run: as §1

[33] = biological target: Neu5Ac9Ac(a2-6)Gal(b1-4)GlcNAc
How it was run: as §1

[34] = biological target: Neu5Gc(a2-3)Gal(b1-3)GlcNAc
How it was run: as §1

[35] = biological target: Neu5Gc(a2-3)Gal(b1-3)[Fuc(a1-4)]GlcNAc
How it was run: as §1

[36] = biological target: Neu5Gc(a2-3)Gal(b1-4)Glc
How it was run: as §1

[37] = biological target: Neu5Gc(a2-3)Gal(b1-4)GlcNAc
How it was run: as §1

[38] = biological target: Neu5Gc(a2-3)Gal(b1-4)GlcNAc(b1-3)Gal(b1-4)GlcNAc(b1-2)Man(a1-3)[Neu5Gc(a2-3)Gal(b1-4)GlcNAc(b1-3)Gal(b1-4)GlcNAc(b1-2)Man(a1-6)]Man(b1-4)GlcNAc(b1-4)GlcNAc
How it was run: as §1

[39] = biological target: Neu5Gc(a2-3)Gal(b1-4)[Fuc(a1-3)]GlcNAc
How it was run: as §1

[40] = biological target: Neu5Gc(a2-6)Gal(b1-4)GlcNAc
How it was run: as §1

[41] = biological target: Neu5Gc(a2-6)GalNAc
How it was run: as §1

[42] = biological target: Neu5Gc(a2-8)Neu5Ac(a2-3)Gal(b1-4)GlcNAc
How it was run: as §1

[43] = biological target: Neu5Gc(a2-8)Neu5Gc(a2-3)Gal(b1-4)GlcNAc
How it was run: as §1

[44] = biological target: Neu5Gc(a2-8)Neu5Gc(a2-3)Gal(b1-4)GlcNAc(b1-3)Gal(b1-4)GlcNAc
How it was run: as §1

[45] = biological target: Neu5Gc(a2-8)Neu5Gc(a2-6)Gal(b1-4)GlcNAc
How it was run: as §1

[46] = biological target: Neu5Gc(b2-6)Gal(b1-4)GlcNAc
How it was run: as §1

B1: PX9937F-bfa-516-16-516 (Bacteroides fragilis) (protein)
chain: LDIDPTSSIADSNYWKTEAQFSTFNVGLHALLRECSFNFFLLGEPRADIYGDVPFGGEATQGMERLPFNTINKENTGISNFAGMYKVINQINLMIAKTKETTVLSEAGKNYYLGEAYGMRAYLYFHLLRSWGDVILYLDYTNGASLDLSNLSKAASPAEEVMKQIKEDITASEKGFGSDYSFKYGRYYWSMAATQMLKGEVYLWSGRQMGGGTADYTTAKTALQSIVSNANVSLQDDFSKVFAYNNKDNSEIIFSIRNAKDEYNMWDDRFRQNLVPQQAYMTSTYCNKEGVSFKDLPEGQLNGLIRLQIRYDLYNKAFRDGDTRKDASMTAVYQKQQDGTVKYIAPFCNKYQGVLLDGASQRSFLNDYPIYRYADCLLLLAEAKALLGEDPTAEINQVRERAYGKEFFEANKATLAYPNDKGDFYTDNKYMSGDEDPLEAILKERMREFMFEGKRWYDLRLLGADYVTKRTSAVATRLLWPINESVLTDNPALKQTPGYQN
[1]
  glycan array binding signal (z-score): -0.249
[2]
  glycan array binding signal (z-score): -0.28
[3]
  glycan array binding signal (z-score): -0.215
[4]
  glycan array binding signal (z-score): -0.008
[5]
  glycan array binding signal (z-score): -0.108
[6]
  glycan array binding signal (z-score): 1.19
[7]
  glycan array binding signal (z-score): -0.031
[8]
  glycan array binding signal (z-score): -0.015
[9]
  glycan array binding signal (z-score): -0.116
[10]
  glycan array binding signal (z-score): -0.113
[11]
  glycan array binding signal (z-score): -0.134
[12]
  glycan array binding signal (z-score): -0.182
[13]
  glycan array binding signal (z-score): -0.093
[14]
  glycan array binding signal (z-score): -0.159
[15]
  glycan array binding signal (z-score): -0.357
[16]
  glycan array binding signal (z-score): 0.026
[17]
  glycan array binding signal (z-score): -0.32
[18]
  glycan array binding signal (z-score): 0.235
[19]
  glycan array binding signal (z-score): -0.213
[20]
  glycan array binding signal (z-score): -0.369
[21]
  glycan array binding signal (z-score): -0.045
[22]
  glycan array binding signal (z-score): 0.196
[23]
  glycan array binding signal (z-score): -0.128
[24]
  glycan array binding signal (z-score): 0.076
[25]
  glycan array binding signal (z-score): 0.294
[26]
  glycan array binding signal (z-score): -0.062
[27]
  glycan array binding signal (z-score): 0.051
[28]
  glycan array binding signal (z-score): -0.26
[29]
  glycan array binding signal (z-score): 0.871
[30]
  glycan array binding signal (z-score): -0.264
[31]
  glycan array binding signal (z-score): -0.249
[32]
  glycan array binding signal (z-score): -0.392
[33]
  glycan array binding signal (z-score): -0.027
[34]
  glycan array binding signal (z-score): -0.064
[35]
  glycan array binding signal (z-score): -0.214
[36]
  glycan array binding signal (z-score): 0.158
[37]
  glycan array binding signal (z-score): -0.378
[38]
  glycan array binding signal (z-score): -0.201
[39]
  glycan array binding signal (z-score): 0.037
[40]
  glycan array binding signal (z-score): -0.211
[41]
  glycan array binding signal (z-score): -0.079
[42]
  glycan array binding signal (z-score): -0.367
[43]
  glycan array binding signal (z-score): -0.24
[44]
  glycan array binding signal (z-score): -0.091
[45]
  glycan array binding signal (z-score): -0.476
[46]
  glycan array binding signal (z-score): 0.089
